No constants are given. Whether binding was seen depends on the method and setting. For some of these results: Binding seen in cells or lysates may run through a third protein. Some entries that bind do so weakly or less than the wild type. Where a sequence is shown, tags or fusion partners need not be part of it. One block for each molecule: values may come before it.
Legend:
[1] = molecular target: T1, recombinant HA-tagged NAP1 (Drosophila) (UniProt Q9W1G7); assay: pull-down; HA-NAP1 held on protein A beads with anti-HA antibodies; [35S]methionine-labelled in vitro translated proteins added; washes with 600 mM KCl, 0.1% NP40; autoradiography; only the target purified
T1 sequence: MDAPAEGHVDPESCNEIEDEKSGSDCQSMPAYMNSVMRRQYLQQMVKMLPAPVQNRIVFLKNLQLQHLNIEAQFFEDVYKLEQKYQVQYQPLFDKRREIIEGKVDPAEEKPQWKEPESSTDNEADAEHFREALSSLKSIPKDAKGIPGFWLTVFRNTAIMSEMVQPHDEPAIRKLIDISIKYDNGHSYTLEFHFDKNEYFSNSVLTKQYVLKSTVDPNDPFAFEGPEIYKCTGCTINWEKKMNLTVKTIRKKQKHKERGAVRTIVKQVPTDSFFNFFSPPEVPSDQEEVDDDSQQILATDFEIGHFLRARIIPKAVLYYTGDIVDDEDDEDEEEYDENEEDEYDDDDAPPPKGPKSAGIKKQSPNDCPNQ

Protein sequences, listed by entry. Tags and fused reporters are not part of them.
UniProt P23696: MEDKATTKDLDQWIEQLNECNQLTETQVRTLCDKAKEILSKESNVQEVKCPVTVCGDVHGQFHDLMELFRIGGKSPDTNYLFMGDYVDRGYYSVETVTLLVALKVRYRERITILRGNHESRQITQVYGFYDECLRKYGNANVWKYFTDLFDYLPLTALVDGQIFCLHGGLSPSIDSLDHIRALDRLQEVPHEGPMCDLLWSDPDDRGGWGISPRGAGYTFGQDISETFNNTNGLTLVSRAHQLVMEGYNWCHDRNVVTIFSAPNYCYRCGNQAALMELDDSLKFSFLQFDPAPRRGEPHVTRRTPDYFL

[2] = molecular target: T2, histone chaperone NAP1 (Drosophila (endogenous in embryos and S2 cells)) (UniProt Q9W1G7); assay: SEC; Sephacryl S-300 of the POROS-heparin 0.4 M KCl fraction of embryo nuclear extract, HEMG/100 pH 7.6; fractions immunoblotted
T2 sequence: T1 sequence

[3] = molecular target: T2, histone chaperone NAP1 (Drosophila (endogenous in embryos and S2 cells)); assay: co-IP; IPs of NAP1 and SA from pooled high molecular weight S-300 fractions 12-14 (about 1.5 MDa) of embryo nuclear extract; immunoblot
[4] = molecular target: T2, histone chaperone NAP1 (Drosophila (endogenous in embryos and S2 cells)); assay: co-IP; IP of SA, NAP1 or PP2A from Drosophila embryo nuclear extract; washes with 600 mM KCl, 0.1% NP40; immunoblot; mock IP with pre-immune serum

binding [1]: no binding
B1: in vitro translated PP2A regulatory subunit PP2A-29B (protein, UniProt P36179 1-591)
chain: MAASDKSVDDSLYPIAVLIDELKNEDVQLRLNSIKKLSTIALALGEERTRSELIPFLTETIYDEDEVLLALADQLGNFTSLVGGPEFAMYLIPPLESLATVEETVVRDKAVESLRTVAAEHSAQDLEIHVVPTLQRLVSGDWFTSRTSACGLFSVCYPRVTQPVKAELRANFRKLCQDETPMVRRAAANKLGEFAKVVETEYLKSDLIPNFVQLAQDDQDSVRLLAVEACVSIAQLLPQDDVEHLVLPTLRQCASDSSWRVRYMVAEKFVDLQKAVGPEITRVDLVPAFQYLLKDAEAEVRAAVATKVKDFCANLDKVNQVQIILSSILPYVRDLVSDPNPHVKSALASVIMGLSPMLGAYQTVEQLLPLFLIQLKDECPEVRLNIISNLDCVNDVIGIQQLSQSLLPAIVELAEDSKWRVRLAIIEYMPALAGQLGQEFFDQKLRGLCMGWLNDHVYAIREAATLNMKKLVEQFGAPWAEQAIIPMILVMSRNKNYLHRMTCLFCLNVLAEVCGTDITTKLLLPTVLLLAADPVANVRFNVAKTLQKISPFLEASVIDAQVKPTLDKLNTDTDVDVKHFAAQAIAGIAAA
modifications: [35S]methionine label

binding [1]: binds
B3: in vitro translated SMC1 (protein, UniProt Q9VCD8 1-1238)
chain: MTEEDDDVAQRVATAPVRKPDDETAFLEYIEMENFKSYRGHIVVGPLKQFNAVIGPNGSGKSNFMDAISFVMGEKTSSLRVKRLNDLIHGSSIGKPVSRSCYVTAKFVLNEERHMDFQRAVIGGSSEYRINGESVSSSTYLNKLEKIGINVKAKNFLVFQGAVENIAMKTPKERTALFEEISGSGLLKDDYNRLKQEMIVAEEETQFTYQKKKGIAAERKEAKHEKMEADRYTRLQNEYNEKQVEYQLFRLFHVERDIRKFTSDLEVRQQEVKAVEQRKEAADEILREKKKDAGKITRDLAKIDQEIREFETQMNKRRPLYIKAKEKVTHCKKKLISLQKTLETAREADNAHQSDIRKLEKQLADVEALKKRFEDEIENESQRRGKSVNMEEGLVQEYDRLKQEAEATATQYRSELDSVNREQKSEQDTLDGETNRRASVEESFKKLTLQREEAVKRRDKLMDHIKSSQAALEEQNRIKDELRRDVGTSKEKIAEKQRELEDVRDQLGDAKSDKHEDARRKKKQEVVELFKKQVPGVYDRMINMCQPTHKRYNVAVTKVLGKFMEAIIVDTEKTARHCIQILKEQMLEVETFLPLDYLQVKPLKERLRNISDPRNVRLVFDVLKFEPQEIERAVLFATGNALVCETPEDAMKVAYEIDRSRFDALALDGTFYQKSGLISGGSHDLARKAKRWDEKHMAQLKMQKERLQEELKELVKKSRKQSELATVESQIKGLENRLKYSMVDLESSKKSISQYDNQLQQVQSQLDEFGPKILEIERRMQNREEHIQEIKENMNNVEDKVYASFCRRLGVKNIRQYEERELVMQQERARKRAEFEQQIDSINSQLDFEKQKDTKKNVERWERSVQDEEDALEGLKLAEARYLKEIDEDKEKMEKFKQDKQAKKQAVDDMEEDISKARKDVANLAKEIHNVGSHLSAVESKIEAKKNERQNILLQAKTDCIVVPLLRGSLDDAVRQSDPDVPSTSAAMENIIEVDYSSLPREYTKLKDDSAFKKTHEMLQKDLQSKLDVLERIQTPNMKALQKLDAVTEKVQSTNEEFENARKKAKRAKAAFERVKNERSSRFVACCQHISDAIDGIYKKLARNEAAQAYIGPDNPEEPYLDGINYNCVAPGKRFQPMNNLSGGEKTIAALALLFSTHSFHPAPFFVLDEIDAALDNTNIGKVASYIRDHTTNLQTIVISLKEEFYGHADALVGITPGEGDCLVSNVYIMDLTTFEDT
modifications: [35S]methionine label

binding [1]: binds
B4: in vitro translated SMC3 (protein, UniProt Q9VXE9 1-1200)
chain: MHIKQIIIQGFKSYKDQTVVEPFDKRHNVVVGRNGSGKSNFFYAIQFVLSDEFTHLRPEQRQSLLHEGTGARVISAYVEIIFDNSDNRVPIDKEEIFLRRVIGAKKDQYFLNKKVVPRNEVVNLLESAGFSSSNPYYIVKQGKINQMATAADSYRLKLLREVAGTRVYDERKEESLNLLRETDSKVEKISEYLKTIEDRLQTLEEEKEELKEYQKWDKTRRTLEYIRYETELKDTKKALDELQLQRKSSSDKKKIYNIEIQKAQEKIKDVQKNLKEAKKKVQSTKEERSVLMTEQQQLLREKTKLDLTIVDLNDEVQGDNKSKERADQELKNLKVTIAEREKELDDVKPKYEAMKRKEEDCSRELQLKEQKRKELYAKQGRGSQFSSREDRDKWITNELKSISKQTRDKIAHHAKLVEDLKKDATSEKDLGQKIEEHSSELEQLRLQIDEHNKKYYELKKTKDQHQSMRNELWRKETQMTQQLQTHKEELSRADQALRSMAGKPILNGCDSVRKVLDSFVERGGQSAEIARAYYGPVIENFSCDKTIYTAVEVTAANRLFHHIVESEYEGTQILKEMNKLKLPGEVTFMPLNRLQVKIHDYPDDPDSIPMISKLKYDEQHDKALRYIFGKTLICRNLERATELAKSTGLDCVTLDGDQVSSKGSLTGGYFNTSRSRLEMQKKRTEYTSQIAEFEKKLSKLRNELKSTENNINSIVSEMQKTETKQGKSKDVFEKVQGEIRLMKEELVRIEQYRAPKERSLAQCKASLESMTSTKSSLEAELKQELMSTLSSQDQREIDQLNDDIRRLNQENKEAFTQRMQFEVRKNKLDNLLINNLFRRRDELIQALQEISVEDRKRKLNNCKTELVSAEKRIKKVNSDLEEIEKRVMEAVQLQKELQQELETHVRKEKEAEENLNKDSKQLEKWSTKENMLNEKIDECTEKIASLGAVPLVDPSYTRMSLKNIFKELEKANQHLKKYNHVNKKALDQFLSFSEQKEKLYRRKEELDIGDQKIHMLIQSLEMQKVEAIQFTFRQVAQNFTKVFKKLVPMGAGFLILKTKDNEGDEMEKEVENSDAFTGIGIRVSFTGVEAEMREMNQLSGGQKSLVALALIFSIQKCDPAPFYLFDEIDQALDAMHRKAVANMIHELSDTAQFITTTFRPELLENAHKFYGVRFRNKVSHIDCVTREEAKDFVEDDSTHA
modifications: [35S]methionine label

Continued, molecule first:

Molecule: in vitro translated PP2A catalytic subunit (from UniProt P23696 1-309) (enzyme)
binding [1]: no binding

B2: cohesin subunit SMC1 (protein, UniProt Q9VCD8 1-1238)
chain: B3 chain
binding [2]: binds
binding [3]: binds
binding [4]: binds
